Assay results from a collection of fitness landscapes (doi:10.1016/j.celrep.2020.107928).
The full ranking holds about 81,000 sequences; the median of “one-hybrid fitness for binding parS DNA” is about -0.17, and the highest 2% start at about 0.51. The list shows a part of the results.

B1: Caulobacter ParB omega fusion; a variant is named by its letters at X, in order, B8GW30 (parent)
chain: MESVVVGEPGMSEGRRGLGRGLSALLGEVDAAPAQAPGEQLGGSREAPIEILQRNPDQPRRTFREEDLEDLSNSIREKGVLQPILVRPSPDTAGEYQIVAGERAWRAAQRAGLKTVPIMVRELDDLAVLEIGIIENVQRADLNVLEEALSYKVLMEKFERTQENIAQTIGKSXSHVANXMRLLXLPDEVQSYLVSGELTAXHARAIAAAADPVALAKQIIEGGLSVRETEALARKAPNLSAGKSKGGRPPRVKDTDTQALESDLSSVLGLDVSIDHRGSTGTLTITYATLEQLDDLCNRLTRGI

Variants of: B1
Assay: one-hybrid fitness for binding parS DNA (scaled: cognate 1, non-cognate 0); higher = stronger binding
Conditions: with parS DNA site
Procedure, shortened: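 In E. coli USO, a HIS3 reporter with its site placed 19 bp from the promoter was used to select Caulobacter ParB variants randomised at four specificity codons. Growth lasted 48 hours at 37°C on histidine-free M9 containing 0.1 mM IPTG and 5 mM 3-AT. Fitness was taken as the log change in variant-to-wild-type read ratio from Illumina sequencing of pre- and post-selection plasmids, rescaled between the non-cognate and cognate sites.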

Variant | one-hybrid fitness for binding parS DNA
QRGD | ≤ 0.2
GQPS | ≤ 0.2
RQPS | 0.535
QNFW | ≤ 0.2
QNKY | ≤ 0.2
TSSR | ≤ 0.2
DVAW | ≤ 0.2
TNKR | ≤ 0.2
TAPN | ≤ 0.2
NMNC | ≤ 0.2
TKTG | ≤ 0.2
CSDI | ≤ 0.2
HTHV | ≤ 0.2
ETNT | ≤ 0.2
THVE | ≤ 0.2
QTYT | ≤ 0.2
QLTF | ≤ 0.2
PVLW | ≤ 0.2
TNRS | ≤ 0.2
ESSS | ≤ 0.2
KATK | ≤ 0.2
HLKV | ≤ 0.2
TSMI | ≤ 0.2
QYWE | ≤ 0.2
RPWY | ≤ 0.2
VPPA | ≤ 0.2

Variant | one-hybrid fitness for binding parS DNA
APQL | ≤ 0.2
WFSD | ≤ 0.2
RYPD | ≤ 0.2
TTLM | ≤ 0.2
IQTP | ≤ 0.2
RKFC | 0.878
YLQR | ≤ 0.2
QFQV | ≤ 0.2
GRAG | ≤ 0.2
QNNQ | ≤ 0.2
TPHR | ≤ 0.2
PPIY | ≤ 0.2
VLMC | ≤ 0.2
YGVS | ≤ 0.2
KMNG | ≤ 0.2
LNCF | ≤ 0.2
NQHR | ≤ 0.2
WCVW | ≤ 0.2
PQFS | ≤ 0.2
MMMT | ≤ 0.2
KPHS | ≤ 0.2
NTCC | ≤ 0.2
YNYR | ≤ 0.2
SHGH | ≤ 0.2
YHMS | ≤ 0.2
ADYI | ≤ 0.2

Variant | one-hybrid fitness for binding parS DNA
LPNI | ≤ 0.2
HLCC | ≤ 0.2
SHWL | ≤ 0.2
MEYS | ≤ 0.2
DYCT | ≤ 0.2
QIYG | ≤ 0.2
HNPV | ≤ 0.2
KRVL | ≤ 0.2
DVNY | 0.281
VYTV | ≤ 0.2
TNTK | ≤ 0.2
AWCG | ≤ 0.2
AEHG | ≤ 0.2
SRRP | ≤ 0.2
RMHD | ≤ 0.2
RHEE | ≤ 0.2
ADCW | 0.268
PIKL | ≤ 0.2
FAPD | ≤ 0.2
SGQT | ≤ 0.2
QGYC | ≤ 0.2
HLDT | ≤ 0.2
SQST | ≤ 0.2
RKFL | ≤ 0.2
DCMS | ≤ 0.2
DGWN | ≤ 0.2

Variant | one-hybrid fitness for binding parS DNA
VGSN | ≤ 0.2
QAGI | ≤ 0.2
RMGF | 0.269
APGR | ≤ 0.2
RYCM | 0.254
KRCH | ≤ 0.2
ILAS | ≤ 0.2
NCTN | ≤ 0.2
ALLT | ≤ 0.2
VRAA | ≤ 0.2
EWGS | ≤ 0.2
GACG | ≤ 0.2
NGQG | ≤ 0.2
TLYY | ≤ 0.2
APYP | ≤ 0.2
QPMD | ≤ 0.2
RYTA | 0.582
RTIT | 0.813
ITLL | ≤ 0.2
IPGT | ≤ 0.2
NSES | ≤ 0.2
WNPT | ≤ 0.2
NCII | ≤ 0.2
QGVG | ≤ 0.2
VRCS | ≤ 0.2
SHPP | ≤ 0.2

Variant | one-hybrid fitness for binding parS DNA
RYND | 0.213
WYQL | ≤ 0.2
CMSG | ≤ 0.2
ALMK | ≤ 0.2
RQCV | ≤ 0.2
ITHT | ≤ 0.2
YQGS | ≤ 0.2
AYTV | ≤ 0.2
SEFT | ≤ 0.2
HFLP | ≤ 0.2
VSES | ≤ 0.2
GVLC | ≤ 0.2
RRAI | ≤ 0.2
PTLD | ≤ 0.2
RKNM | 0.234
FPPG | ≤ 0.2
HDMR | ≤ 0.2
QRFL | ≤ 0.2
AQAY | ≤ 0.2
MKKT | ≤ 0.2
PKAV | ≤ 0.2
SLDA | ≤ 0.2
NCPS | ≤ 0.2
ASQN | ≤ 0.2
PPAH | ≤ 0.2
SYGV | ≤ 0.2

Variant | one-hybrid fitness for binding parS DNA
HQTT | ≤ 0.2
VCQP | ≤ 0.2
PTIE | ≤ 0.2
RIAR | ≤ 0.2
LYLM | ≤ 0.2
DPAA | ≤ 0.2
GTTA | ≤ 0.2
AYPA | ≤ 0.2
AEPL | ≤ 0.2
SLEI | ≤ 0.2
KNDT | ≤ 0.2
KKCC | ≤ 0.2
SLAF | ≤ 0.2
RKCD | ≤ 0.2
NIPP | ≤ 0.2
PRLS | ≤ 0.2
DYFD | ≤ 0.2
WNCG | ≤ 0.2
FLDN | ≤ 0.2
FSNG | ≤ 0.2
NYVC | ≤ 0.2
TGRI | ≤ 0.2
LVSV | ≤ 0.2
